Read counts are not given, so values of variants with three or more changes are uncertain.
B1: LINE1-mini (parent)
chain: GGCAGAGCUCAACACAGCGUGGCAAAGUGGCUGUGGCUAGACUGCC

Variants of: B1
Assay: self-cleavage, relative activity (ratio to wild type); higher = more cleavage; in vitro, sequencing; the parent is a self-cleaving ribozyme

Row | Variant | self-cleavage
1 | G2U C10A A12U | 0
2 | C15U C18A G29A U43C | 0.03
3 | G1A A24G C37U | 0.05
4 | G1U G2U G27U | 0.07
5 | G1C A6C A41C | 0
6 | A26C G35C C37G C42G C46A | 0.02
7 | G1U G19U G33A G40U | 0.02
8 | G5A U9A A26U G27A U32A | 0.52
9 | A11G A12G C18G A24G | 0.01
10 | A16U C18U G33C G36C C37A | 0.01
11 | A25C A26C G27A G44C C45A | 0.05
12 | A24G G29U C31U C37U G44A | 0.01
13 | G1U G21U G22U | 1.59
14 | A16C G19U U20G G22C C31A | 0.01
15 | C23A G36C C42A G44A | 0.45
16 | G17U G21U G29C A41C | 0.02
17 | A6U G22C C23A A26C | 1.35
18 | A6G A24C G40U | 0.01
19 | C8U C15A G17A C18U C42A | 0.02
20 | G1U C10G G36A G40U | 0.01
21 | C15U C23A U38A | 0.54
22 | G7A G29A G40C | 0.16
23 | A4G U9G G17A | 0.15
24 | U20G G21C C23A A25U | 0.18

Row | Variant | self-cleavage
25 | C13G G21A C45U | 0.3
26 | A16U C18A G19A | 0.06
27 | G1C A16C U38G C42U | 0
28 | G1U A6C A26C U28C A39C | 0
29 | G1U A11C C18U G19A G22C G33U | 0.01
30 | C15A A25C G29A | 0.03
31 | A6U A16C G17C G19U | 0.14
32 | C15A G19U G27A C37U | 0.02
33 | G7U A26U U32G A39G | 0.13
34 | G19C U20C G21U | 0.16
35 | G2A A4G G27U U32A G35A | 0.04
36 | G17A G22U G27U U28A C37A | 0.06
37 | C8G C18U G29A G30A C42G | 0.02
38 | G22A G29A C42G | 0.02
39 | C8A C10A C18U A26G C37U | 0.02
40 | G27U U32A C45A | 0.03
41 | A12U C18U G21U C31A | 0.01
42 | A14G G19C G29A C46U | 0.07
43 | C10U A16G C23G A41U | 0.04
44 | C3G G29U U38A U43C G44A | 0.18
45 | C18U C37G G40A A41C | 0.01
46 | A4G U28A C37A | 0.06
47 | U9G C10G U28A | 0.01
48 | U9A U28A G30U U32G A39C | 0.01

Row | Variant | self-cleavage
49 | C10U G19U A39C | 0.13
50 | C8G G27A U34G | 0.03
51 | G2A G30C G33A | 0.18
52 | C18U G21A G27U G35C | 0.02
53 | G2A G5U A14U G29A G33A | 0.07
54 | C8A A16G G33U | 0.01
55 | C8G A11C A14U C37U | 0
56 | G17U A26G G40A | 0.03
57 | G35A G36C G40A A41C C45U | 0.1
58 | A4C A41G G44U | 0.09
59 | G7C C8U G29C G36C C42A C45U | 0.02
60 | G21A C37G C45A | 0.4
61 | C3G C13U G44C | 0.03
62 | C10G A11C G30A A39U | 0.02
63 | C18A G33U C37A G44A | 0.02
64 | C10A A11U A14C C42A | 0
65 | G27C U32C G35U G36U | 0.11
66 | U32C G35C G44A | 0.02
67 | G5C C8A A24G A39U | 0.06
68 | G1A C18A G19U A39U | 0.08
69 | G5U C13U G19A U20C G22U U28G | 0.01
70 | C8U C23U U32G A41U | 0.18
71 | C15U C31A C42A | 0.12
72 | C18G G22U U32A U38G | 0.01

Row | Variant | self-cleavage
73 | G7U C15A C37G G40C | 0.03
74 | A25G G29A G30A G36A | 0.18
75 | C13U U20C G40A | 0.04
76 | A26G G36C A39G | 0.1
77 | A14C C18U G27U A41C | 0
78 | A12G C23A G27U G30C | 0.08
79 | G2A C10A C18U C31U | 0.05
80 | C3A A4G A16U | 0
81 | G2U A11U U32G G33A | 0.01
82 | C3A C8A U9C A24U | 0.19
83 | A4U C18G G27C G35C G36U | 0.28
84 | C8A C31U A39G | 0.16
85 | A25C G40U A41G C42A | 0.06
86 | C3U G29U G33C C45G | 0.03
87 | G1U G21C G27U C37A | 0.02
88 | G17U G19C G35U | 0.04
89 | A4G C8U U9C | 0.12
90 | C15U G19U C31U U32G C37G C42G | 0.04
91 | G2A A4U C18A G22C C45U | 1.36
92 | A11U G33A A41U | 0.05
93 | A6U C8U C18U A25G | 0.61
94 | C3U G7C G27A | 0.07
95 | G19U G30C U43G | 0
96 | A6G C18G C42G | 0.01

Row | Variant | self-cleavage
97 | C23G G27U C45A | 0.29
98 | A4G A16U G17A A41G | 0.04
99 | A14C C15A G21U | 0.01
100 | G17A G30A G35C U43A C45G | 0
101 | C8U G30A A39G U43A | 0.02
102 | A16C A26C U38C | 0.15
103 | C10A U20G A26U | 0.03
104 | C8U G22U C23U U28A A39C | 0.44
105 | A12C G35C C42A | 0.05
106 | C18G G21U G29C | 2.75
107 | C3G C8U C13U A39G C42U | 0.13
108 | A39C C42A C45G | 0.04
109 | A14U C18U G21U C46A | 0.08
110 | A4C G19C C23A | 0.06
111 | C8G C10U A11C A12U A26C | 0.02
112 | A11G C23G U38C G44C | 0
113 | G27U G29C C31A A41G | 0.2
114 | C3A G5U G7C A41G G44A C45A | 0.04
115 | C13U U32C G35A | 0.02
116 | G30U C31U U32G G40C A41U C46A | 0
117 | A12G C13U G19A G27A G29U | 0.01
118 | G5A G7U G19C G21A A24U C45G | 0.05
119 | C23A C37A C45U | 0.05
120 | U9C G36A U38A | 0

Row | Variant | self-cleavage
121 | G1A A6G G27U U34C | 0.04
122 | C3A G21C G33U | 0.1
123 | C8U A16G G27U | 0.03
124 | G5U C10U G21C | 0.19
125 | C3A G35U G40U | 0.14
126 | G5A A14G G19U U28A G33C U43A | 0.01
127 | A24U G30U G40A C42G | 0.03
128 | A25C G40A C46U | 0.14
129 | U9G U28G G44U | 0.05
130 | A24G G30U G33U C42A | 0.01
131 | G2U C15A G35A | 0.06
132 | C8U G19A C31A | 0.15
133 | G5U A11C U38G C46G | 0.02
134 | G5U C8G G29C | 0.01
135 | G7U C8G G35U G36C C37G A41C C42A | 0.03
136 | A11U A16U C45U | 0.01
137 | A6G G7A C10A C13A C15U G40C A41G | 0.06
138 | A6G C8U U20C G36C | 0
139 | U28A U32C C46U | 0.08
140 | A6U C18A U28C C45A | 0.06
141 | A6C U9G U28A | 0.04
142 | C18A G30A C31G | 0.07
143 | G17C G27U U28G U43A | 0.02
144 | G5A A14G U32C A39U C45G | 0

Row | Variant | self-cleavage
145 | G5U G30U U38A | 0.05
146 | G21U A26U A41C U43G | 0.44
147 | G5U C15U A25G | 0.13
148 | A12C A16G C23G G40U | 0
149 | G5U C13A A25G | 0.02
150 | A12G G19A G22A | 0.02
151 | U9A C10G U20C | 0.01
152 | U9G G19U G29C A41U | 0.03
153 | C8A A26U G27U U43A | 0.16
154 | A4G A11U A26C G27A | 0.01
155 | C10A A14C C31U C46U | 0.05
156 | C13G A24C C37U | 0.11
157 | A6G G36A C42U U43G G44C | 0.07
158 | G1C U9C G19A U20C | 0
159 | G21U C31G C42U | 0.02
160 | G17A G21U G36C | 0.04
161 | G17A G35A C42A | 0.01
162 | G5U G17U G30C | 0.13
163 | C15G C18U G19U | 0.01
164 | C8A G19A U32C U38A | 0.06
165 | G5U C18A C31A U43G | 0.01
166 | G1A A12G G21U | 0.02
167 | A4U A12C G19C G21A C37U | 0
